Test results taken from the supplement of paper PMC3334620.
Whole data set: some 33,000 sequences, median “E-score (-0.5 to 0.5)” near -0.035, cut for the highest 2% near 0.34. The list shows a part of the results.

target: T1, Mot3 (UniProt P54785); assay: PBM E-score (8-mer binding enrichment) (E-score (-0.5 to 0.5)); higher = stronger / more preferred TF binding; most listed sequences are background and not binding sites; details: protein concentration: 200 nM; construct: GST-full length
T1 sequence: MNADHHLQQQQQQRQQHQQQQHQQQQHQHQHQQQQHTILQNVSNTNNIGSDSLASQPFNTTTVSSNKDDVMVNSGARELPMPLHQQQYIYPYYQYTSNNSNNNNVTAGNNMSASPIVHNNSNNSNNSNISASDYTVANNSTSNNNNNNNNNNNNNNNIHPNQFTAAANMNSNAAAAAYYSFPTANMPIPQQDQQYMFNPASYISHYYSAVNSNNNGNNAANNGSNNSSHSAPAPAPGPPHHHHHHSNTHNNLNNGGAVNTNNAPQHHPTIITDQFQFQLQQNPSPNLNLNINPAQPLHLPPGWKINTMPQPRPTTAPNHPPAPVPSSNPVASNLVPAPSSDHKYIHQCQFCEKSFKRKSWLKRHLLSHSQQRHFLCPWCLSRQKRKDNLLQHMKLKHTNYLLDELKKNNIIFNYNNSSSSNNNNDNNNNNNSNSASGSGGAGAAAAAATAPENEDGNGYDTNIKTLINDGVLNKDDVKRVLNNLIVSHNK
Method in brief: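 Bound GST-tagged yeast transcription factors, applied at about 100-200 nM to double-stranded universal all-10-mer Agilent arrays, were detected with fluorescent anti-GST. Scans were normalised with masliner. A modified Wilcoxon-Mann-Whitney statistic, the E-score, was assigned to each ungapped eight-base word pooled with its reverse complement by the Universal PBM Analysis Suite.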

Row | Sequence | PBM E-score
1 | CGAATAAA | -0.101
2 | TATGCGGA | -0.205
3 | ACGGATTC | 0.079
4 | AGCTCGGA | -0.208
5 | CAGGGACA | 0.0375
6 | GTATTTCA | 0.211
7 | CGCACGCA | -0.03
8 | ACAGACAA | 0.17
9 | CCTACTTA | 0.141
10 | GCTGGCCA | -0.178
11 | GAGCTCAC | -0.221
12 | CAATGTGA | 0.154
13 | ATCTACAG | 0.0501
14 | AGACGGGC | -0.136
15 | AAGTCTCT | -0.138
16 | CGCTGGGA | -0.211
17 | AAATATCG | 0.0559
18 | ACCATCCT | 0.0451
19 | TCTGTAAA | 0.231
20 | ACCAAGGT | -0.00664
21 | CACCCCAC | -0.163
22 | TAGGAAGA | -0.115
23 | CGTTGTTA | 0.187
24 | GAGGCGCC | -0.301
25 | CAACTACG | 0.118

Row | Sequence | PBM E-score
26 | CGAGTACG | -0.0642
27 | AGTGTTGG | -0.122
28 | ATTTAGGG | -0.121
29 | AGAATAGA | -0.0292
30 | ACCAGCAT | -0.0925
31 | ACGCATTA | 0.159
32 | AGGATACT | -0.12
33 | CGGATGTC | -0.29
34 | ACGGAAGT | -0.22
35 | AACGTTCT | 0.0512
36 | ATGCCATA | -0.00348
37 | AGAGGGCT | -0.181
38 | CCGTCACC | -0.329
39 | ACATCAGG | 0.161
40 | GATCGGCA | -0.285
41 | CACTATCC | -0.329
42 | CCGATGGC | -0.197
43 | AAAAAAGC | 0.13
44 | AATGGTCA | -0.111
45 | GCTGAATA | 0.141
46 | CGCGACCC | -0.124
47 | TGCTAAAA | 0.0711
48 | CAATTCTG | 0.0205
49 | TCGACAGA | -0.108
50 | ACTTGCAA | 0.0581

Row | Sequence | PBM E-score
51 | AAGGTAAC | 0.339
52 | TGGGCACA | 0.356
53 | ATGGGCAA | 0.121
54 | GTGTGAAC | 0.153
55 | AACCCTGT | 0.0849
56 | ATTGTTTG | 0.0654
57 | TCAGTTCA | -0.0694
58 | GGGAGAAC | -0.2
59 | TAGATCGA | -0.105
60 | AGCCCTTG | -0.0922
61 | GATTGCTA | -0.115
62 | CTTCTAGC | -0.101
63 | CATGGAAC | -0.0907
64 | GGATGAAA | -0.138
65 | CTCAAGAA | -0.0846
66 | CCACTGCC | -0.207
67 | AGAAGTGA | -0.0786
68 | ATCTTAGC | -0.0857
69 | AACACCAT | 0.122
70 | ACAAAAAT | 0.094
71 | CCGAAGGC | 0.275
72 | GATAGCGC | 0.0929
73 | AGATGGCC | -0.179
74 | ACTACTCG | 0.0849
75 | CGGCGTAC | 0.0545

Row | Sequence | PBM E-score
76 | ATAACGCG | 0.199
77 | AACGCAAA | 0.0196
78 | GCATTAAA | 0.264
79 | TCTTCTAA | -0.0123
80 | ACGCAAGC | 0.0762
81 | AGAACCAT | 0.0806
82 | TAATTTAA | 0.175
83 | GATCTGCA | -0.113
84 | CATAGTCC | -0.0494
85 | ACGCCGCT | -0.0984
86 | CACCGTGA | -0.252
87 | ACCCGCAG | -0.189
88 | AAACCTAC | 0.127
89 | AACATATT | 0.197
90 | GGTCATTA | -0.162
91 | ATGATCAC | -0.0679
92 | AGAGTACC | 0.043
93 | ACTAAGGG | -0.193
94 | AAGCCGCC | -0.147
95 | AGCAGTTA | -0.052
96 | AATACCTC | 0.132
97 | CTTCTCTA | -0.0751
98 | TTATTGAA | 0.125
99 | CGGTGGCA | -0.354
100 | AGATGTGC | -0.0176

Row | Sequence | PBM E-score
101 | AAAACCAT | -0.116
102 | CGACCTTA | -0.165
103 | AAGTTCTA | -0.111
104 | AATAGGTA | 0.38
105 | CCGCCTCC | -0.222
106 | AGCACCAG | -0.0574
107 | GCACCACA | -0.0381
108 | TAACGAGA | 0.123
109 | CATTGAAA | 0.169
110 | CCCATGGA | -0.187
111 | ATACATGA | 0.363
112 | CGCCAAGA | -0.271
113 | ACCTGCAA | 0.15
114 | CAATTCTA | 0.0194
115 | AGCTGTAC | -0.165
116 | ATTCATGG | 0.025
117 | GCCGCTAA | -0.0753
118 | CTATTGTA | 0.183
119 | AAAGGGAG | -0.128
120 | ACCTAGGA | -0.0478
121 | GCCGGCAA | -0.177
122 | GAGTCACC | -0.34
123 | CGCTTGTA | 0.235
124 | CCGATGTC | -0.075
125 | CAGCTAAC | -0.0689

Row | Sequence | PBM E-score
126 | TCATCTCA | -0.1
127 | GGAATGCC | -0.0541
128 | AACTTACT | 0.046
129 | ACGCCAGG | 0.18
130 | ATATCTTA | 0.0935
131 | ACACTGGG | 0.0273
132 | AATACTCT | 0.107
133 | ATCCCTCA | -0.18
134 | AGTGCGAA | -0.0759
135 | CTAGCCAA | -0.0892
136 | CATTTGCG | 0.0635
137 | ATTACGGC | -0.0851
138 | GTTGGAAA | -0.0146
139 | GCTCATTA | -0.0195
140 | CGTACCCA | -0.117
141 | TACGTTAA | 0.252
142 | AGAATCTC | 0.073
143 | ATAATTTA | 0.144
144 | ACGTCCAG | -0.0677
145 | AGAAGACT | -0.149
146 | GTGCTATA | -0.00959
147 | CTTCAAGC | -0.0397
148 | GAGCCCTC | -0.118
149 | ACTGCAGG | 0.0605
150 | GGGTTCCA | -0.273

Row | Sequence | PBM E-score
151 | ACGATTGA | 0.0344
152 | CCACCCGA | -0.197
153 | CGACCGTA | -0.141
154 | CAGAGTTA | -0.102
155 | ATACCTTG | 0.126
156 | AAACAGAG | -0.0785
157 | CCGGCCCG | -0.248
158 | GGTATACA | 0.115
159 | ATAGGAAC | 0.456
160 | AGGCATAT | 0.207
161 | AGAATTAG | -0.0254
162 | ATGCCTAC | 0.424
163 | GTTTGTCA | 0.0429
164 | ATAATCTC | -0.0787
165 | TGAAGCAA | -0.0324
166 | CCTGACTA | 0.116
167 | ATGCGAAC | 0.0292
168 | GGTCTTTA | 0.115
169 | CATTTACG | 0.201
170 | AACCTGCT | -0.132
171 | CCGCGCTC | -0.153
172 | AATCGAGA | -0.129
